Assay results published in paper PMC3742609.
No constants are given. Whether binding was seen depends on the method and setting. For some assays here: In cells and extracts the contact can be indirect. Some binding calls cover weakened binding; strength is not graded here. For some assays here: Where a sequence is shown, tags or fusion partners need not be part of it. One block for each molecule: values may come before it.

Amino acid sequences for entries named in this document (tags omitted).
UniProt P16220: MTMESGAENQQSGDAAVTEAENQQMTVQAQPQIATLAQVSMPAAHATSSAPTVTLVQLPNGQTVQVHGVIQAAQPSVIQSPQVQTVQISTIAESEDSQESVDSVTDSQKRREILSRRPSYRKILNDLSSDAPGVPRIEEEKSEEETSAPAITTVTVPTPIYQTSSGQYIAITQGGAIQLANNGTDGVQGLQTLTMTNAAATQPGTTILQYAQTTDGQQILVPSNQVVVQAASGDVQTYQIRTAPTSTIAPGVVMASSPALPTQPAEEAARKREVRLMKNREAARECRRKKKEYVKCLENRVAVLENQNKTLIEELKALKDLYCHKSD
UniProt P08659: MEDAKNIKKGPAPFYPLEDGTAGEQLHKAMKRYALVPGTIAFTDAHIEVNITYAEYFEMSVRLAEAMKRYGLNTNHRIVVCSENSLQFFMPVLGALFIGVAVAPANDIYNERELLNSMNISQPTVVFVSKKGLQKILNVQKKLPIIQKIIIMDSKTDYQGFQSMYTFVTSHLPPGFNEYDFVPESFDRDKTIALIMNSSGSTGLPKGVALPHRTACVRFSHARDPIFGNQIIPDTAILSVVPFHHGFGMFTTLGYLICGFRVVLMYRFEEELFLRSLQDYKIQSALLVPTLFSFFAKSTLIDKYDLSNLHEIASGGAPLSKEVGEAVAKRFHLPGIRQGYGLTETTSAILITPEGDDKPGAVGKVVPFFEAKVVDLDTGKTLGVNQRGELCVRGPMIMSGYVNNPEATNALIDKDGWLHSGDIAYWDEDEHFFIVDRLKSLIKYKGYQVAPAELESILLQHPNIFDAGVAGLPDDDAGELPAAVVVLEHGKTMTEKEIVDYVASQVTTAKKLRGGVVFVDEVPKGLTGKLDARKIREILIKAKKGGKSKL
UniProt Q9UHV7: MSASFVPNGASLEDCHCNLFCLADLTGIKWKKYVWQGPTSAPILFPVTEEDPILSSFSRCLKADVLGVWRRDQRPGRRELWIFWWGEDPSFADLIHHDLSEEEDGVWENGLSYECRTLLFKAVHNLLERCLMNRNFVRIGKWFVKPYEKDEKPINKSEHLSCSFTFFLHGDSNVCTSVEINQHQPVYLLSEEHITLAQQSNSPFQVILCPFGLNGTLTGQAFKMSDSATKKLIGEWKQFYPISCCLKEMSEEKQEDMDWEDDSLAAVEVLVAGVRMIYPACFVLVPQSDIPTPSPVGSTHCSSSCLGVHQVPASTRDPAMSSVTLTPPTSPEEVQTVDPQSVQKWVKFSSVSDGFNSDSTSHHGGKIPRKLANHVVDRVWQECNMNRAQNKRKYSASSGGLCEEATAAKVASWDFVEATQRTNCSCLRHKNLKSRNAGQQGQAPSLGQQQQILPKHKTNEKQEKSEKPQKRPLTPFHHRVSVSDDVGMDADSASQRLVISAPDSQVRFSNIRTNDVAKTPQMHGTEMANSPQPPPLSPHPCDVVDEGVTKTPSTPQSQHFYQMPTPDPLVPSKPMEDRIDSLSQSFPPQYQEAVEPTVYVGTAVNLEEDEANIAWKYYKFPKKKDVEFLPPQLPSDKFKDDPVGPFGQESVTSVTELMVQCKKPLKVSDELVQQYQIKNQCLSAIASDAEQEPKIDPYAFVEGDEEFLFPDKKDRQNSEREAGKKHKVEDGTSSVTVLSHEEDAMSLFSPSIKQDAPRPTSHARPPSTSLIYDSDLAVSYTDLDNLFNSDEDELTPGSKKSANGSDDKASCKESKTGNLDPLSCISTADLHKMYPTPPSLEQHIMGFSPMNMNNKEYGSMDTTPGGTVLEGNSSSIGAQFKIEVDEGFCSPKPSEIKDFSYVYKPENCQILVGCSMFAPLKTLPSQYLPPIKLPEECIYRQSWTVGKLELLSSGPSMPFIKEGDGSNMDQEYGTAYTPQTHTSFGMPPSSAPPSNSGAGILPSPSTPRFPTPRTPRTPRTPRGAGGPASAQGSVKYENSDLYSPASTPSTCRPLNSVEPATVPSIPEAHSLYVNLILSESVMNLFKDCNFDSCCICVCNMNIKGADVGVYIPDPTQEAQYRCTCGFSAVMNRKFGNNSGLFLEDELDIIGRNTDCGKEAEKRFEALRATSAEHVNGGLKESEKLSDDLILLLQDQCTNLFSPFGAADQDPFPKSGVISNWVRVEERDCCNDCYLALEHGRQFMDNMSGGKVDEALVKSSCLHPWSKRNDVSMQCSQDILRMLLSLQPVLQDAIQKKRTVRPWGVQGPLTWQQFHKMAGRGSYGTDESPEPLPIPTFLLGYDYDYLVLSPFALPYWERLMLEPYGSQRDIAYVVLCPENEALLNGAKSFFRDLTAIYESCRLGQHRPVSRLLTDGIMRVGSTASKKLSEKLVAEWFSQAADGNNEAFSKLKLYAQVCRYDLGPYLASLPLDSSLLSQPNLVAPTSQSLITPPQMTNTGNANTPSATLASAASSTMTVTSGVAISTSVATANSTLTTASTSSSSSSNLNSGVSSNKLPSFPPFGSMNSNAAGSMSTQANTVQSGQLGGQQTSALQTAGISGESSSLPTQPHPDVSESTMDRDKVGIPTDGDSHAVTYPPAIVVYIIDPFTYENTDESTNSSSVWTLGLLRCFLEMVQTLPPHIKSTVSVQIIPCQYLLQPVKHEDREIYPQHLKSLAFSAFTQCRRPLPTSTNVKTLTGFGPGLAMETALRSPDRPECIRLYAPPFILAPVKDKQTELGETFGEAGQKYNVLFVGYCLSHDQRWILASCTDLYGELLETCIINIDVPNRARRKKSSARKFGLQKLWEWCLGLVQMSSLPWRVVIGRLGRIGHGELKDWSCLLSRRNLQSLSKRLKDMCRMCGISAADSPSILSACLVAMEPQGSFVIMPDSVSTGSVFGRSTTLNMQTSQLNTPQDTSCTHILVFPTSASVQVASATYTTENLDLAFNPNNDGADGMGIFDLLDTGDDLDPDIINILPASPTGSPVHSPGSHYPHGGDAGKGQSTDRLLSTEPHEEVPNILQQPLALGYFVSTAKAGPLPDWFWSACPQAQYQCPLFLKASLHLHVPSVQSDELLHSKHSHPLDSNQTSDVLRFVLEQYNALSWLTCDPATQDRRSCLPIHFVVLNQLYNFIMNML
UniProt Q00403: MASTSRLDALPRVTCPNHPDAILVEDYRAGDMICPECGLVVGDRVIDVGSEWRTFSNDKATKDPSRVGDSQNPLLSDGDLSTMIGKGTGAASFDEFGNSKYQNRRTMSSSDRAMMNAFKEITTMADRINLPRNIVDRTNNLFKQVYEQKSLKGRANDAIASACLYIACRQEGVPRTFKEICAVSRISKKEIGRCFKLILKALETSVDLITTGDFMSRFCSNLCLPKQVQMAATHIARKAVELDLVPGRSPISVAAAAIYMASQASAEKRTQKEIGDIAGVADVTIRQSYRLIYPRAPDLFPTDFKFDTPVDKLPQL
UniProt P24863: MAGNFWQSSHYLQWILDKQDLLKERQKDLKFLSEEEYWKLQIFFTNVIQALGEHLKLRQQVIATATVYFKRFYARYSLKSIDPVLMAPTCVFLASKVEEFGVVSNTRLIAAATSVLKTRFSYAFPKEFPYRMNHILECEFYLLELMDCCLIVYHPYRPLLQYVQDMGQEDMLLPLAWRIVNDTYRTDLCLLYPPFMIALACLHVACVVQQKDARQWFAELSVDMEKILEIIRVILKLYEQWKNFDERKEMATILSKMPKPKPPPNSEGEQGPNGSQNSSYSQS
UniProt P20226: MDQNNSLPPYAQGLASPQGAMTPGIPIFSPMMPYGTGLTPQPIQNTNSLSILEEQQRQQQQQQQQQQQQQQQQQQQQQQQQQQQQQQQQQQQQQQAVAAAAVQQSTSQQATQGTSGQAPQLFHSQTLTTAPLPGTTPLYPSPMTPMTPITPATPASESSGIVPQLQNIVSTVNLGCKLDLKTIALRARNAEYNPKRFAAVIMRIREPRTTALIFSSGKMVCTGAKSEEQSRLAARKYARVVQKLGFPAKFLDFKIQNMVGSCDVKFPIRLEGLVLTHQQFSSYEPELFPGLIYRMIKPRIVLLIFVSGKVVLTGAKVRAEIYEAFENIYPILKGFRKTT
UniProt P49336: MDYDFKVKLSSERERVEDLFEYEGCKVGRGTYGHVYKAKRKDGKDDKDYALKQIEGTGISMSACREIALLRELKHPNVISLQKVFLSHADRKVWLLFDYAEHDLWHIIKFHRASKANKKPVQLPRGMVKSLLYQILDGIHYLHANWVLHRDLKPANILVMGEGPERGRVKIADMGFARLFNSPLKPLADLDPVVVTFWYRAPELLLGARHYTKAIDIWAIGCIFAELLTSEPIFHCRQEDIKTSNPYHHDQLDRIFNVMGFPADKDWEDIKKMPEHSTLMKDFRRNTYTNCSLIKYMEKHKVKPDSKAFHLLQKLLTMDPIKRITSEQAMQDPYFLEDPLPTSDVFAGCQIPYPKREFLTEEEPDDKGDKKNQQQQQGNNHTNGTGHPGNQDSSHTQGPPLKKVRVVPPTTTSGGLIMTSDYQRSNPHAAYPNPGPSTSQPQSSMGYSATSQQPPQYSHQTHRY

How the values were obtained:
[1] = target: T1, hnRNP R, endogenous in HeLa nuclear extract (human (endogenous in HeLa)) (UniProt O43390); assay: co-IP; HeLa nuclear extract (~20 mg protein) with 1 ug purified anti-hnRNP R antibody, 4 C, rProtein A Sepharose; washed with buffer C with 100 mM KCl, 0.01% Nonidet P-40; Western blot
T1 sequence: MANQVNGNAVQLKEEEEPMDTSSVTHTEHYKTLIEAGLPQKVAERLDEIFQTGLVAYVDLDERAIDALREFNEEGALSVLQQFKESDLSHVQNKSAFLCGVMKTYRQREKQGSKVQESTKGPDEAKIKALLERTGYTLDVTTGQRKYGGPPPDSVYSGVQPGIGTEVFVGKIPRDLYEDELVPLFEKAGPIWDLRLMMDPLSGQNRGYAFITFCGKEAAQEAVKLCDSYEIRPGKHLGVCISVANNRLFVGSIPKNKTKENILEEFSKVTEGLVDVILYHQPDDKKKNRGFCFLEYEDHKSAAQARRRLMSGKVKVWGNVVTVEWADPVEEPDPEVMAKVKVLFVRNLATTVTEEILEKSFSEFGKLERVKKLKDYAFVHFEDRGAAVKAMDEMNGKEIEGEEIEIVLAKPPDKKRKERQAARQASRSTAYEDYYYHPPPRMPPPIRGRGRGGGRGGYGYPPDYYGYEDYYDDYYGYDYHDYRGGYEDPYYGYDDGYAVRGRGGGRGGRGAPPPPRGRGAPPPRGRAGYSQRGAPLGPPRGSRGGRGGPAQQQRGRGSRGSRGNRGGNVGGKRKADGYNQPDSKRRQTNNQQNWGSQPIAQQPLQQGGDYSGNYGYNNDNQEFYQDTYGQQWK

[2] = target: T2, 3xFLAG-tagged MED10 (Nut2) (UniProt Q9BTT4); assay: condition: only Mediator purified from the 0.85 M KCl P11 fraction; co-IP; Med(0.85): 0.85 M KCl phosphocellulose (P11) fraction of nuclear extract of HeLa cells expressing 3xFLAG-MED10, purified on anti-FLAG M2 affinity gel; subunits detected by Western blot
T2 sequence: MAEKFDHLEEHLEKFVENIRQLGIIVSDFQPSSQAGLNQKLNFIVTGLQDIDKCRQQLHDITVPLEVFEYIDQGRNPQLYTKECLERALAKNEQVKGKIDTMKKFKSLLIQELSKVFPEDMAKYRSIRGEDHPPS

[3] = target: T2, 3xFLAG-tagged MED10 (Nut2); assay: co-IP; Med(0.5): 0.5 M KCl phosphocellulose (P11) fraction of nuclear extract of HeLa cells expressing 3xFLAG-MED10, purified on anti-FLAG M2 affinity gel; subunits detected by Western blot
[4] = target: T3, GST-hnRNP R (heterogeneous nuclear ribonucleoprotein R) (human) (UniProt O43390); assay: pull-down; GST pull-down, GST-hnRNP R or GST alone immobilised; Mediator, PC4 or FLAG-luciferase in solution (Figure 4A); essentially as described in ref. 20; both purified
T3 sequence: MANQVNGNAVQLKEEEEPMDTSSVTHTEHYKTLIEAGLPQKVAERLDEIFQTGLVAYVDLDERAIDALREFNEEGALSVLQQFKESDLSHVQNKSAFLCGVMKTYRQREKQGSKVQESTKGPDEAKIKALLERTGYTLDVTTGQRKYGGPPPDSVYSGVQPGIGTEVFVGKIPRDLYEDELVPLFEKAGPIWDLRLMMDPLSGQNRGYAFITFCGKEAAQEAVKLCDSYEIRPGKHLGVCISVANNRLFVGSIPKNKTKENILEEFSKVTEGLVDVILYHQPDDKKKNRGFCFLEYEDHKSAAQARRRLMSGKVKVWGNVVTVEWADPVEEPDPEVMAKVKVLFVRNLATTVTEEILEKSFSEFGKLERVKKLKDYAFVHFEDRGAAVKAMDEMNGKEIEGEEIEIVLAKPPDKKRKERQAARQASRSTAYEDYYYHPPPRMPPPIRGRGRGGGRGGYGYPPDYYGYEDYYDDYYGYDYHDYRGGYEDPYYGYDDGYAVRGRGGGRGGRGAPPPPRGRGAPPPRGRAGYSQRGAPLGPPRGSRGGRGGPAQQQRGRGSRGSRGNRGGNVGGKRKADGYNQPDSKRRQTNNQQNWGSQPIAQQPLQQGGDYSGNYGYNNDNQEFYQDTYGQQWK

[5] = target: T3, GST-hnRNP R (heterogeneous nuclear ribonucleoprotein R) (human); assay: pull-down; GST pull-down between hnRNP R and GTFs or Pol II (Figure 4C); which partner carried GST is not stated; essentially as described in ref. 20; both purified
[6] = target: T2, 3xFLAG-tagged MED10 (Nut2); assay: co-IP; Med(0.85): 0.85 M KCl phosphocellulose (P11) fraction of nuclear extract of HeLa cells expressing 3xFLAG-MED10, purified on anti-FLAG M2 affinity gel; subunits detected by Western blot
[7] = target: T4, GST-SRF (serum response factor) (UniProt P11831); assay: pull-down; GST pull-down, GST-Elk-1, -CREB, -ATF1, -SRF or GST immobilised; hnRNP R in solution (Figure 4B); essentially as described in ref. 20; both purified
T4 sequence: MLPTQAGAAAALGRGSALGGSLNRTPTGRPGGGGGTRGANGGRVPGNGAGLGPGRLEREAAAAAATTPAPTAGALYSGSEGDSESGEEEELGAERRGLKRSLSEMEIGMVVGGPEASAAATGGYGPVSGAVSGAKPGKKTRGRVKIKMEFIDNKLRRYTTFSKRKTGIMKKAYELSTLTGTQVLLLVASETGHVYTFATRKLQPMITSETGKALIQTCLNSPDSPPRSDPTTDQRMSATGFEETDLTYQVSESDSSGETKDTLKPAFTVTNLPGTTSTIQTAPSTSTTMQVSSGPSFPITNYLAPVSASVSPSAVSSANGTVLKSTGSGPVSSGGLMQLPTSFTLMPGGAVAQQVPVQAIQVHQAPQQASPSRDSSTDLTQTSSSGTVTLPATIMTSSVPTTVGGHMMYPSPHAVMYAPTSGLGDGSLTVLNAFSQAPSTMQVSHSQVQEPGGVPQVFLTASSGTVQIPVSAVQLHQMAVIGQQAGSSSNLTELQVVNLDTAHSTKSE

[8] = target: T5, GST-Elk-1 (Ets-related transcription factor) (UniProt P19419); assay: as above
T5 sequence: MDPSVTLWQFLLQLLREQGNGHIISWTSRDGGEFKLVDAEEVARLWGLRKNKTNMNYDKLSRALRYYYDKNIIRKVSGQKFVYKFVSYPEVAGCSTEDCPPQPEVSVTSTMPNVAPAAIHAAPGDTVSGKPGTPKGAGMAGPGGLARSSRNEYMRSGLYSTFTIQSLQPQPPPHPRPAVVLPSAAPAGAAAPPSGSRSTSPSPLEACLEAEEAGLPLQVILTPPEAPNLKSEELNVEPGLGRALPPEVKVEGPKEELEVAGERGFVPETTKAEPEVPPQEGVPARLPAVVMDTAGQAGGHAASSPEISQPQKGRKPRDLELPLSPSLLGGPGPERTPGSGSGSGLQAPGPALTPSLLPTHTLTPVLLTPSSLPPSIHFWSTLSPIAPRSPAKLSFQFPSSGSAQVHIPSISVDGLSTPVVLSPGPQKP

[9] = target: GST-CREB (CRE-binding factor) (UniProt P16220); assay: as above
[10] = target: T6, GST-ATF1 (activating transcription factor 1) (UniProt P18846); assay: as above
T6 sequence: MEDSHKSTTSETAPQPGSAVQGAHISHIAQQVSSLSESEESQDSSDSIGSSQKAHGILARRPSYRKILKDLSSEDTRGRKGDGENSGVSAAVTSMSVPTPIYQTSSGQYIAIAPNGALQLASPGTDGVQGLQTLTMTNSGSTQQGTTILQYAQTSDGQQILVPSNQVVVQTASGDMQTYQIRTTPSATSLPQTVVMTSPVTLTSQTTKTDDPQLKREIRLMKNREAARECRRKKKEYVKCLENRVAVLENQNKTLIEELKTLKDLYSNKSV

Molecule: FLAG-tagged luciferase (from UniProt P08659 1-550) (enzyme)
binding [4]: no binding

Molecule: MED13 (from UniProt Q9UHV7 1-2174)
binding [2]: no binding | binding [3]: binds

Molecule: TFIIB (from UniProt Q00403 1-316)
binding [5]: binds

B2: MED17 (protein, UniProt Q9NVC6 1-651)
chain: MSGVRAVRISIESACEKQVHEVGLDGTETYLPPLSMSQNLARLAQRIDFSQGSGSEEEEAAGTEGDAQEWPGAGSSADQDDEEGVVKFQPSLWPWDSVRNNLRSALTEMCVLYDVLSIVRDKKFMTLDPVSQDALPPKQNPQTLQLISKKKSLAGAAQILLKGAERLTKSVTENQENKLQRDFNSELLRLRQHWKLRKVGDKILGDLSYRSAGSLFPHHGTFEVIKNTDLDLDKKIPEDYCPLDVQIPSDLEGSAYIKVSIQKQAPDIGDLGTVNLFKRPLPKSKPGSPHWQTKLEAAQNVLLCKEIFAQLSREAVQIKSQVPHIVVKNQIISQPFPSLQLSISLCHSSNDKKSQKFATEKQCPEDHLYVLEHNLHLLIREFHKQTLSSIMMPHPASAPFGHKRMRLSGPQAFDKNEINSLQSSEGLLEKIIKQAKHIFLRSRAAATIDSLASRIEDPQIQAHWSNINDVYESSVKVLITSQGYEQICKSIQLQLNIGVEQIRVVHRDGRVITLSYQEQELQDFLLSQMSQHQVHAVQQLAKVMGWQVLSFSNHVGLGPIESIGNASAITVASPSGDYAISVRNGPESGSKIMVQFPRNQCKDLPKSDVLQDNKWSHLRGPFKEVQWNKMEGRNFVYKMELLMSALSPCLL
binding [6]: binds | binding [3]: binds

B3: FLAG-tagged hnRNP R (F:hnRNP R) (protein, UniProt O43390 1-633)
chain: MANQVNGNAVQLKEEEEPMDTSSVTHTEHYKTLIEAGLPQKVAERLDEIFQTGLVAYVDLDERAIDALREFNEEGALSVLQQFKESDLSHVQNKSAFLCGVMKTYRQREKQGSKVQESTKGPDEAKIKALLERTGYTLDVTTGQRKYGGPPPDSVYSGVQPGIGTEVFVGKIPRDLYEDELVPLFEKAGPIWDLRLMMDPLSGQNRGYAFITFCGKEAAQEAVKLCDSYEIRPGKHLGVCISVANNRLFVGSIPKNKTKENILEEFSKVTEGLVDVILYHQPDDKKKNRGFCFLEYEDHKSAAQARRRLMSGKVKVWGNVVTVEWADPVEEPDPEVMAKVKVLFVRNLATTVTEEILEKSFSEFGKLERVKKLKDYAFVHFEDRGAAVKAMDEMNGKEIEGEEIEIVLAKPPDKKRKERQAARQASRSTAYEDYYYHPPPRMPPPIRGRGRGGGRGGYGYPPDYYGYEDYYDDYYGYDYHDYRGGYEDPYYGYDDGYAVRGRGGGRGGRGAPPPPRGRGAPPPRGRAGYSQRGAPLGPPRGSRGGRGGPAQQQRGRGSRGSRGNRGGNVGGKRKADGYNQPDSKRRQTNNQQNWGSQPIAQQPLQQGGDYSGNYGYNNDNQEFYQDTYGQQWK
binding [7]: no binding | binding [8]: binds | binding [9]: binds | binding [10]: binds

The next lines start with the values.

binding [1]: binds
Molecule: CREB, endogenous in HeLa nuclear extract (from UniProt P16220 1-327)

binding [2]: no binding | binding [3]: binds
Molecule: Cyclin C (from UniProt P24863 1-283)

binding [5]: binds
Molecule: TBP (from UniProt P20226 1-339)

binding [2]: no binding | binding [3]: binds
Molecule: cyclin-dependent kinase 8 (CDK8) (from UniProt P49336 1-464)

binding [1]: binds
B1: Elk-1, endogenous in HeLa nuclear extract (protein, UniProt P19419 1-428)
chain: MDPSVTLWQFLLQLLREQGNGHIISWTSRDGGEFKLVDAEEVARLWGLRKNKTNMNYDKLSRALRYYYDKNIIRKVSGQKFVYKFVSYPEVAGCSTEDCPPQPEVSVTSTMPNVAPAAIHAAPGDTVSGKPGTPKGAGMAGPGGLARSSRNEYMRSGLYSTFTIQSLQPQPPPHPRPAVVLPSAAPAGAAAPPSGSRSTSPSPLEACLEAEEAGLPLQVILTPPEAPNLKSEELNVEPGLGRALPPEVKVEGPKEELEVAGERGFVPETTKAEPEVPPQEGVPARLPAVVMDTAGQAGGHAASSPEISQPQKGRKPRDLELPLSPSLLGGPGPERTPGSGSGSGLQAPGPALTPSLLPTHTLTPVLLTPSSLPPSIHFWSTLSPIAPRSPAKLSFQFPSSGSAQVHIPSISVDGLSTPVVLSPGPQKP
